# Experimental data reported in the supplement of paper PMC3334620.
# The full ranking holds about 33,000 sequences; the median of “E-score (-0.5 to 0.5)” is about -0.035, and the highest 2% start at about 0.35. The list shows a part of the results.
# Target: T1, Pdr3 (UniProt P33200)
# T1 sequence: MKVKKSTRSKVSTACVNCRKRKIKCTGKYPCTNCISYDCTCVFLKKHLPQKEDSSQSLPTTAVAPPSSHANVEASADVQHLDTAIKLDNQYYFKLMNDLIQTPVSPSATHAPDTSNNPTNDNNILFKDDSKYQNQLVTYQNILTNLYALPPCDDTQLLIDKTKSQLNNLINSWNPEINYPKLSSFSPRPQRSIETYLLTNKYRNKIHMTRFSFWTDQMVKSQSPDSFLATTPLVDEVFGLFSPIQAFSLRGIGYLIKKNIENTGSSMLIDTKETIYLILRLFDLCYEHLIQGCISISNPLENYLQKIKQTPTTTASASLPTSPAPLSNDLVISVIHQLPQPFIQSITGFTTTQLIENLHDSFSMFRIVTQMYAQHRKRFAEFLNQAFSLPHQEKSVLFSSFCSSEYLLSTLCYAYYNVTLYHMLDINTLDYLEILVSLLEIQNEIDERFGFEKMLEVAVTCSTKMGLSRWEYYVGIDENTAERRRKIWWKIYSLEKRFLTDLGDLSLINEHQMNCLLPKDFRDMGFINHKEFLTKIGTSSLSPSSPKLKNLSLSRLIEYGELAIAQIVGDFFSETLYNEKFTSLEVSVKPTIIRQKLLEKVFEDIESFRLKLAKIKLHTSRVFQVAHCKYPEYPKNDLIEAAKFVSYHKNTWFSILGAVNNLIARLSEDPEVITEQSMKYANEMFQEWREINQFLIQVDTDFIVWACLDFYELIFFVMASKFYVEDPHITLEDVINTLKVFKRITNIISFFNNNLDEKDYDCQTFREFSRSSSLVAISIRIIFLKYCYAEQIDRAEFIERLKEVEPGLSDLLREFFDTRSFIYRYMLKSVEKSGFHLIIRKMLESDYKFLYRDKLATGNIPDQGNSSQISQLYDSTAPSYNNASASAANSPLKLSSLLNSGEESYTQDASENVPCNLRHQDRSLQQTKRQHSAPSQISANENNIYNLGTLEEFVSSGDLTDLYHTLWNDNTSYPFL
# Test: PBM E-score (8-mer binding enrichment) (E-score (-0.5 to 0.5)); higher = stronger / more preferred TF binding; most listed sequences are background and not binding sites
# Details: protein concentration: 200 nM; construct: GST-full length
# Procedure, shortened: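 GST-tagged yeast TFs (full-length or DNA-binding domain) were made by PURExpress in vitro transcription/translation and applied at about 100-200 nM to universal all-10-mer Agilent arrays. The arrays were made double-stranded by primer extension, on fresh or once-stripped slides. Bound protein was detected with fluorescent anti-GST, and scans were normalised with masliner. Each ungapped eight-base word, pooled with its reverse complement, received an E-score (modified Wilcoxon-Mann-Whitney statistic) from the Universal PBM Analysis Suite.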
row,Sequence,PBM E-score
1,CAAATTGG,-0.115
2,AAATGGGA,-0.167
3,GCGAAAAA,0.0463
4,AGACGGCC,0.109
5,CCGGTTGC,0.313
6,ACACCGTG,-0.00244
7,AATGGCGA,0.17
8,GGTGTGAA,0.0718
9,CGTTGCAG,-0.174
10,ACATTAGA,-0.151
11,CCTAATAG,-0.0343
12,GTGCTTTA,-0.0577
13,CACACATG,-0.176
14,GAGAGCGA,0.0323
15,CCTTTGCC,-0.186
16,AATTCGTA,0.0286
17,TCGACTCA,0.0706
18,CAAGCCGG,0.316
19,ACGCCTAT,-0.114
20,AAGCTTTC,0.065
21,CGCGACCG,0.141
22,GAGAGCGC,0.0524

row,Sequence,PBM E-score
1,ACGGGCGG,0.21
2,TCAGCAAA,-0.08
3,ATTTCCTA,-0.0987
4,AAGTTTCT,-0.13
5,ATCCGTCA,0.305
6,ATGTTACA,-0.0716
7,CCAGATTA,-0.00749
8,ACTAGTTC,-0.0393
9,ACCCCTTG,-0.233
10,ATATACAG,0.0396
11,AAAAGTAC,-0.087
12,GGTTAGTA,0.148
13,GCATCGTA,-0.00957
14,AGTTCGGG,0.246
15,GCAGTCTA,-0.209
16,ATCTGCAG,0.0199
17,GCAGCTAA,-0.106
18,GAAATTAC,0.0418
19,CGCAGTAA,0.0584
20,GCGAACGC,-0.00654
21,CAGCTTGC,-0.0481
22,CACTGTTC,-0.148

row,Sequence,PBM E-score
1,TAAGTTCA,-0.112
2,CTAGCAGC,-0.146
3,ACCCGTGG,0.282
4,ATCGATAA,0.0678
5,CAATATGG,-0.121
6,AACCTACG,-0.0983
7,GTTTTGGA,-0.0915
8,CTCGACAA,-0.0925
9,ACACGGAA,0.438
10,CAGAGCCA,-0.253
11,ATCCTTAC,-0.0234
12,ATAGATGA,-0.166
13,CGGGCAAA,0.241
14,AGGCTTTA,-0.36
15,GACGAAAA,0.131
16,AGTTAGTA,-0.106
17,ACTGCTAC,-0.195
18,AGCCGGCT,0.315
19,AGGATCTG,-0.32
20,CTTAGCCC,-0.0563
21,AGCATCGG,0.105
22,GGTTTCCA,-0.104

row,Sequence,PBM E-score
1,CGTTAGCA,-0.0649
2,CGTTCGTA,0.166
3,ACGTACCG,0.0979
4,GAATGATC,0.0751
5,AGGTACCT,-0.213
6,CCTGAATC,-0.0536
7,TATGGAGA,-0.197
8,GCTAAGAA,-0.0745
9,ACCATACA,-0.166
10,CGTAAGAG,-0.164
11,GTTGTTAA,0.00071
12,CTTAGCAC,0.0559
13,GCTATAAA,-0.0687
14,TCGGCCAA,0.12
15,CGAATGGC,0.14
16,CAGGGACG,-0.0975
17,CAGCCCAA,-0.0793
18,GGCCACGA,0.0306
19,CCCACTGC,0.0614
20,TAGCTCCA,-0.149
